# Source: PubChem BioAssay AID2546 (National Center for Advancing Translational Sciences (NCATS), 2010)
# Hit rate of the full screen: of about 310,000 compounds, about 11,000 (3.5%) were called active. The shares of active, inactive and inconclusive entries below differ from those in the screen. The call rests on the fitted dose curve; in most records, active means well fitted inhibition curve with a large enough effect; inconclusive means small, poorly fitted or top-dose-only effect, or effect the other way; inactive means flat fitted curve, though single readings scatter. No potency is given beside an inconclusive call; the fits are too rough.
# Assay: VP16 counterscreen qHTS for inhibitors of ROR gamma transcriptional activity;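 further: Gal4-VP16 expression switched on by copper sulfate through the metallothionein promoter; nearly all actives have a fitted effect of over 50% in size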
# Settings: Drosophila S2 Gal4-VP16 UAS-luciferase, luminescence, 20 h; series mostly up to 53.6 µM
# Potency means the concentration at half of the fitted maximal effect; tags describe the fitted curve by direction and shape.
row,Compound,Potency
1,Cc1ccc(-n2sc3ccccc3c2=O)cc1,active: 1.58 µM
2,Fc1ccc(C2=CCN(C(c3ccc(Cl)cc3)c3nnnn3Cc3ccccc3)CC2)cc1 (configuration not stated),"inconclusive [activator, single point]"
3,Cc1ccc(OCCn2cccc2/C=C2/C(=O)NC(=O)N(Cc3ccco3)C2=O)cc1,"inconclusive [inhibitor, partial curve, poor fit]"
4,CCOP(=S)(OCC)Oc1ccc([N+](=O)[O-])cc1,inactive
5,CCN(CC)CCN1C(=O)CN=C(c2ccccc2F)c2cc(Cl)ccc21,inactive
6,O=c1[nH]c(=S)[nH]c(O)c1N=Nc1ccc(-c2ccccc2)cc1[N+](=O)[O-],active: 17.8 µM
7,O=C(CN1CCCCC1)c1ccccc1Cl,"inconclusive [inhibitor, single point]"
8,O=C(NC(O)C(Cl)(Cl)Cl)NC(O)C(Cl)(Cl)Cl (configuration not stated),inactive
9,N#CSCC(=O)N1c2ccccc2CCc2ccccc21,"inconclusive [inhibitor, single point]"
10,O=C(c1cc(-c2cccc(Cl)c2)on1)N1CCOCC1,"inconclusive [inhibitor, single point]"
11,C=CCNC(=O)c1c(N)n(Cc2ccco2)c2nc3ccccc3nc12,inactive
12,CCOc1cc2c(cc1OCC)-n1cccc1C(c1ccc(C(C)C)cc1)NC2 (configuration not stated),"inconclusive [inhibitor, single point]"
13,Cc1cccc(N2C(=O)NC(=O)/C(=C/c3ccc(-c4ccc(C(=O)O)c(Cl)c4)o3)C2=O)c1,inactive
14,CC(C)(C)CC(C)(C)c1ccc(O)cc1,"inconclusive [inhibitor, single point]"
15,C/C(=N\NC(=S)Nc1ccccc1)c1c(O)n(C)c(=O)n(C)c1=O,"inconclusive [inhibitor, single point]"
16,CCCn1c(C)c(C(=O)c2cccc3ccccc23)c2ccccc21,inactive
17,Cc1cccc(N=Nc2ccc(N(C)C)cc2)c1,active: 12.6 µM
18,COC(=O)c1c(N)n(Cc2ccc(OC)cc2)c2nc3ccccc3nc12,"inconclusive [inhibitor, single point]"
19,CCC1/C=C/C=CCC(C)C(O)[C@@](C)(O)C(=O)C(C)C(O)C(C)C(=O)C(C)C(O)C(C)C=CC(=O)O[C@H]2C(C)C(CC1)O[C@]1(CCC(C)C(CC(C)O)O1)C2C (some centres not stated),active: 50.1 µM
20,CCOP(=S)(OCC)Oc1ncn(-c2ccccc2)n1,"inconclusive [activator, single point]"
21,Cn1c2c(c3ccccc31)CCNCC2,inactive
22,CC(C)c1oc(=O)cc2c1[C@@H](O)[C@H]1OC(=O)[C@@]3(C)CC[C@@H](O)[C@@]2(C)C13 (some centres not stated),active: 5.01 µM
23,O=c1[nH]c(O)c(/C=C2/C=CC(c3cc(Cl)ccc3Cl)=N2)c(=O)[nH]1,inactive
24,O=C1NC(=O)N(Cc2ccco2)C(=O)/C1=C/c1cccn1CCOc1ccccc1Cl,"inconclusive [inhibitor, single point]"

row,Compound,Potency
1,CN(C)C(=O)O/N=C(\N)COc1ccc(C(C)(C)C)cc1,"inconclusive [inhibitor, partial curve, poor fit]"
2,CN=C(SCC(=O)c1cccc(Cl)c1)c1c(O)n(C)c(=O)n(C)c1=O,"inconclusive [inhibitor, single point]"
3,CN1CCC(O)(c2cccs2)C(C(=O)c2cccs2)C1 (configuration not stated),active: 3.16 µM
4,O=C(Oc1ccccc1)N1CCC2(CCCN(Cc3ccccc3)C2)CC1,inactive
5,CC1CC2OC2/C=C\C=C/C(=O)Cc2c(Cl)c(O)cc(O)c2C(=O)O1 (configuration not stated),active: 10 µM
6,COc1ccc(OCCn2cc(/C=C(\C#N)C(=O)NCc3ccco3)c3ccccc32)cc1,active: 3.55 µM
7,COc1ccc(C2CC(c3c(O)n(CCc4ccccc4)c(=O)[nH]c3=O)=NN2)cc1OC (configuration not stated),inactive
8,C[C@]12CC[C@@H]3c4cc(O)c(O)cc4CC[C@H]3[C@@H]1CC[C@@H]2O,"inconclusive [inhibitor, partial curve, poor fit]"
9,CCc1ccc(N2C(=O)NC(=O)/C(=C/c3cccn3CCOc3ccc(C(C)CC)cc3)C2=O)cc1 (configuration not stated),"inconclusive [inhibitor, full curve]"
10,S=P(Nn1cnnc1)(c1ccc(Br)cc1)c1ccc(Br)cc1,"inconclusive [inhibitor, single point]"
11,Cc1ccsc1CNCCc1ccccc1F,inactive
12,N=c1c2c(n(Cc3ccc(Cl)cc3Cl)c3c1CCC3)CCCC2,"inconclusive [inhibitor, single point]"
13,CCc1nnc(NC(=O)CSc2ccc(-c3ccco3)nn2)s1,"inconclusive [activator, single point]"
14,O=C(O)c1cc2ccccc2oc1=O,"inconclusive [activator, partial curve]"
15,CCC(C)OC(=O)c1c(N)n(Cc2cccs2)c2nc3ccccc3nc12 (configuration not stated),"inconclusive [inhibitor, single point]"
16,CC1CC(Cl)CCC1C(=O)OC(C)(C)C (configuration not stated),inactive
17,CC(C)(C)c1nc(N2CCN(C(=O)c3ccco3)CC2)c2nnn(Cc3ccccc3Cl)c2n1,"inconclusive [inhibitor, single point]"
18,CC12CC[C@H]3[C@@H](CCC4(O)C[C@H](O)CCC34/C=N/NC(=O)c3ccccc3[N+](=O)[O-])C1(O)CCC2C1=CC(=O)OC1 (some centres not stated),inactive
19,Cc1c(O)c(O)cc2c1CC=C1[C@]3(C)CC[C@]4(C)CC[C@@](C)(C(=O)O)CC4[C@]3(C)CC[C@]12C (some centres not stated),active: 12.6 µM
20,CN(C)C(=O)Oc1ccc(Cl)c2ccccc12,"inconclusive [inhibitor, single point]"
21,O=C1NC(=O)[C@]2(Cc3ccccc3N3CCN(c4ccccc4)CC32)C(=O)N1Cc1ccccc1 (some centres not stated),inactive
22,O=c1[nH]c(O)c(N=Nc2ccc3c(c2)OCCO3)c(=O)[nH]1,"inconclusive [inhibitor, single point]"
23,C/C=C(\C)C(=O)N[C@@H](c1ccccc1)[C@@H](O)C(=O)O[C@H]1C[C@@]2(O)[C@@H](OC(=O)c3ccccc3)C3[C@](C)(C(=O)[C@H](OC(C)=O)C(=C1C)C2(C)C)[C@H](O)C[C@H]1OC[C@@]31OC(C)=O (some centres not stated),active: 35.5 µM
24,COc1ccc(N2C(=O)NC(=O)/C(=C/c3ccc4c(c3)Cc3ccccc3-4)C2=O)cc1,"inconclusive [inhibitor, partial curve]"

row,Compound,Potency
1,CCCCCn1c(=O)c(C(=O)NCc2ccccn2)c(O)c2ccccc21,active: 17.8 µM
2,COc1ccc2cc1Oc1ccc(cc1)C[C@H]1c3cc(c(OC)cc3CCN1C)Oc1c(OC)c(OC)cc3c1[C@H](C2)N(C)CC3,"inconclusive [inhibitor, single point]"
3,CN1C(=O)C(Cc2cccc3ccccc23)C(=O)N(C)C1=O,inactive
4,Cc1cc(O)c2c(c1)C(=O)c1cc(O)cc(O)c1C2=O,"inconclusive [inhibitor, single point]"
5,O=C(Oc1c(Br)cc(Br)c2cccnc12)N1CCCCC1,"inconclusive [inhibitor, partial curve]"
6,O=C(Oc1cccc2cccnc12)c1ccccc1,"inconclusive [inhibitor, single point]"
7,COc1cc(CNCCc2c[nH]c3ccccc23)cc(OC)c1,inactive
8,CN1C(=O)C(=Cc2ccc(SC3CCCCC3)o2)C(=O)N(C)C1=O,inactive
9,CCC(=O)Nc1nc2ccccc2n1CCN(C)C,"inconclusive [inhibitor, single point]"
10,O=C1NC(=O)C(=Cc2ccc(-c3ccc(F)cc3O)o2)C(=O)N1,inactive
11,S=C1NC2(CCCCC2)NC12CCCCC2,"inconclusive [inhibitor, single point]"
12,COc1ccc(OC)c(C(O)C2CCCCN2)c1 (configuration not stated),inactive
13,Cn1cccc1/C=C1/C(=O)NC(=S)N(Cc2ccc(F)cc2)C1=O,inactive
14,CC(=O)c1cc(C(C)=O)c(C)[n+](C)c1C,inactive
15,O=c1c2ccccc2[nH]c(=S)n1-c1ccc2c(c1)OCCO2,"inconclusive [inhibitor, single point]"
16,Nc1ncnc2c1ccn2[C@@H]1O[C@H](CO)[C@@H](O)[C@H]1O,active: 1.12 µM
17,CC[C@@]1(O)C(=O)OCc2c1cc1n(c2=O)Cc2cc3c(O)cccc3nc2-1,"inconclusive [inhibitor, partial curve]"
18,CCCCC(=O)N/N=C/c1c(O)n(Cc2ccco2)c(=O)[nH]c1=O,inactive
19,CNC(=O)Oc1cccc(-c2cn3cc(OC(=O)NC)ccc3n2)c1,"inconclusive [inhibitor, single point]"
20,CCc1ccc2nc(N3CCC(C(=O)N4CCC5(CC4)OCCO5)CC3)sc2c1,"inconclusive [inhibitor, single point]"
21,CCN(CC)c1ccc(N=Cc2c(O)n(Cc3ccco3)c(=O)[nH]c2=O)cc1,inactive
22,COc1cc(/C=C/C(=O)c2c(O)n(CCc3ccccc3)c(=O)[nH]c2=O)ccc1O,"inconclusive [inhibitor, single point]"
23,Cc1cccc(OCCn2cccc2/C=C2/C(=O)NC(=O)N(Cc3ccco3)C2=O)c1,"inconclusive [inhibitor, partial curve]"
24,CC(C)C(=O)Nc1ccc([N+](=O)[O-])c(C(F)(F)F)c1,"inconclusive [inhibitor, single point]"
